Sequences and labels used below:
B1: PhoQ; a variant is named by its letters at X, in order, P23837 (parent)
chain: MKKLLRLFFPLSLRVRFLLATAAVVLVLSLAYGMVALIGYSVSFDKTTFRLLRGESNLFYTLAKWENNKLHVELPENIDKQSPTMTLIYDENGQLLWAQRDVPWLMKMIQPDWLKSNGFHEIEADVNDTSLLLSGDHSIQQQLQEVREDDDDAEMTHSVAVNVYPATSRMPKLTIVVVDTIPVELKSSYMVWSWFIYVLSANLLLVIPLLWVAAWWSLRPIEALAKEVRELEEHNRELLNPATTRELTSLVRNLNRLLKSERERYDKYRTTLTDLTHSLKTPLXXLQXXLRSLRSEKMSVSDAEPVMLEQISRISQQIGYYLHRASMRGGTLLSRELHPVAPLLDNLTSALNKVYQRKGVNISLDISPEISFVGEQNDFVEVMGNVLDNACKYCLEFVEISARQTDEHLYIVVEDDGPGIPLSKREVIFDRGQRVDTLRPGQGVGLAVAREITEQYEGKIVAGESMLGGARMEVIFGRQHSAPKDE

The text below walks through data of a collection of fitness landscapes (doi:10.1126/science.1257360).

This is one part of the list.

The variants in this assay derive from B1. Description: enrichment ratio after two sorts for PhoP signalling (ratio (wild type AVST 3.29)); higher = more functional. The settings on record: with PhoP (E. coli).
VCCH: the enrichment ratio worked out at 0.637.

For the variant LCPE, the enrichment ratio was not above 0.25.

As for HRQH, the enrichment ratio was not above 0.25.

For VDAT, the enrichment ratio was not above 0.25.

As for ALSI, the enrichment ratio was determined as 7.77.

As for KQLL, the enrichment ratio is not above 0.25.

As for PMTT, the enrichment ratio was not above 0.25.

FILR: the enrichment ratio was not above 0.25.

For the variant ESGR, the enrichment ratio was not above 0.25.

As for VRPK, the enrichment ratio was not above 0.25.

Turning to WQKP, the enrichment ratio is not above 0.25.

With ADTV, the enrichment ratio was 0.277.

Take AQSV: the enrichment ratio came to 6.04.

As to CSDL, the enrichment ratio is not above 0.25.

For KYRD, the enrichment ratio was not above 0.25.

Regarding KLNE, the enrichment ratio is not above 0.25.

For the variant SYDL, the enrichment ratio was not above 0.25.

QEPC: the enrichment ratio was not above 0.25.

VTLR: the enrichment ratio is not above 0.25.

Take SIGN: the enrichment ratio amounted to 7.14.

For YAAR, the enrichment ratio is not above 0.25.

As to KHCW, the enrichment ratio was not above 0.25.

In the case of DRNS, the enrichment ratio is not above 0.25.

For the variant GLHS, the enrichment ratio is not above 0.25.

KRMR: the enrichment ratio is not above 0.25.

For YGWY, the enrichment ratio was not above 0.25.

Take MFNR: the enrichment ratio was not above 0.25.

Consider LLPS, for which the enrichment ratio is not above 0.25.

MKSE: the enrichment ratio was not above 0.25.

Turning to PLWT, the enrichment ratio was not above 0.25.

VHEF: the enrichment ratio is not above 0.25.

For the variant SIHM, the enrichment ratio was determined as 0.394.

As for HKTP, the enrichment ratio is not above 0.25.

In the case of AMMP, the enrichment ratio is not above 0.25.

Take TIAR: the enrichment ratio turned out to be 5.85.

With THHQ, the enrichment ratio is not above 0.25.

IKLQ: the enrichment ratio is not above 0.25.

As for DICR, the enrichment ratio is not above 0.25.

Take ADSI: the enrichment ratio is not above 0.25.

For TYLE, the enrichment ratio was not above 0.25.

Consider PIQY, for which the enrichment ratio is not above 0.25.

For INCI, the enrichment ratio was not above 0.25.

Take EHVV: the enrichment ratio was not above 0.25.

For the variant SLDF, the enrichment ratio was not above 0.25.

On to ESFG, for which the enrichment ratio is not above 0.25.

Consider IGGL, for which the enrichment ratio was not above 0.25.

Regarding KLGG, the enrichment ratio is not above 0.25.

As to RSKR, the enrichment ratio is not above 0.25.

GADP: the enrichment ratio was not above 0.25.

In the case of TYCW, the enrichment ratio was not above 0.25.

Take IWVN: the enrichment ratio was not above 0.25.

Consider KKVP, for which the enrichment ratio was not above 0.25.

With NHGQ, the enrichment ratio was not above 0.25.

WRCY: the enrichment ratio is not above 0.25.

As for REFL, the enrichment ratio was not above 0.25.

On to HNAS, for which the enrichment ratio stood at 3.94.

For YAFE, the enrichment ratio is not above 0.25.

For WQCH, the enrichment ratio was not above 0.25.

Consider YEGC, for which the enrichment ratio is not above 0.25.

For IRWT, the enrichment ratio is not above 0.25.

RQRF: the enrichment ratio is not above 0.25.

As for ETVW, the enrichment ratio is not above 0.25.

In the case of CYLY, the enrichment ratio was not above 0.25.

In the case of LMWV, the enrichment ratio is not above 0.25.

For ANTT, the enrichment ratio came to 2.07.

Regarding QRYN, the enrichment ratio was not above 0.25.

For NGLS, the enrichment ratio is not above 0.25.

Take ESTQ: the enrichment ratio is not above 0.25.

Take DAMV: the enrichment ratio was not above 0.25.

Take LTPS: the enrichment ratio is not above 0.25.

Regarding LYMC, the enrichment ratio was not above 0.25.

In the case of VWEP, the enrichment ratio is not above 0.25.

Consider VVED, for which the enrichment ratio was not above 0.25.

VKGE: the enrichment ratio was not above 0.25.

For GQFC, the enrichment ratio was not above 0.25.

As to PETA, the enrichment ratio was not above 0.25.

On to YMQS, for which the enrichment ratio is not above 0.25.

Consider TYEG, for which the enrichment ratio was not above 0.25.

In the case of KHYW, the enrichment ratio is not above 0.25.

For LEID, the enrichment ratio was not above 0.25.

Turning to SHDA, the enrichment ratio was not above 0.25.

Regarding DGHP, the enrichment ratio was not above 0.25.

On to PWCY, for which the enrichment ratio was not above 0.25.

As for ESVS, the enrichment ratio was not above 0.25.

In the case of VMKI, the enrichment ratio was not above 0.25.

For the variant RLVF, the enrichment ratio is not above 0.25.

As to PKCI, the enrichment ratio was not above 0.25.

Take IVID: the enrichment ratio is not above 0.25.

Take GPHL: the enrichment ratio is not above 0.25.

As for KGQD, the enrichment ratio is not above 0.25.

For FTPM, the enrichment ratio was not above 0.25.

For KHEC, the enrichment ratio was not above 0.25.

Regarding RHKI, the enrichment ratio is not above 0.25.

With LTTC, the enrichment ratio was not above 0.25.

Turning to VVCA, the enrichment ratio is not above 0.25.

DVTC: the enrichment ratio was not above 0.25.

For RTAV, the enrichment ratio was not above 0.25.

With DMRH, the enrichment ratio was not above 0.25.

On to DYSR, for which the enrichment ratio is not above 0.25.

With MPVV, the enrichment ratio is not above 0.25.

For EKNQ, the enrichment ratio was not above 0.25.

Regarding FEPE, the enrichment ratio is not above 0.25.

Take ATMG: the enrichment ratio came to 16.2.

On to DERS, for which the enrichment ratio is not above 0.25.

For the variant KVAL, the enrichment ratio was not above 0.25.

Consider TWMS, for which the enrichment ratio is not above 0.25.

As to ASPM, the enrichment ratio turned out to be 0.773.

On to MPSD, for which the enrichment ratio is not above 0.25.

Consider IQTS, for which the enrichment ratio was not above 0.25.

YKPG: the enrichment ratio was not above 0.25.

For the variant HILQ, the enrichment ratio is not above 0.25.

As to RRLF, the enrichment ratio was not above 0.25.

Take HRID: the enrichment ratio is not above 0.25.

For the variant QDRT, the enrichment ratio was not above 0.25.

As to NHDC, the enrichment ratio is not above 0.25.

On to NCFV, for which the enrichment ratio was not above 0.25.

For KVEP, the enrichment ratio was not above 0.25.

Regarding YAEY, the enrichment ratio was not above 0.25.

Take EVRS: the enrichment ratio was not above 0.25.

For the variant LQYT, the enrichment ratio was not above 0.25.

With IDKY, the enrichment ratio was not above 0.25.

As for WNCR, the enrichment ratio was not above 0.25.

Regarding IRGM, the enrichment ratio is not above 0.25.

For LNSQ, the enrichment ratio is not above 0.25.

Consider REFA, for which the enrichment ratio is not above 0.25.

SRTP: the enrichment ratio was not above 0.25.

On to LDVA, for which the enrichment ratio was not above 0.25.

On to RQTY, for which the enrichment ratio was not above 0.25.

Regarding QFQF, the enrichment ratio is not above 0.25.

For the variant FMVQ, the enrichment ratio is not above 0.25.

In the case of MKAS, the enrichment ratio is not above 0.25.

RRDT: the enrichment ratio is not above 0.25.

On to YSLN, for which the enrichment ratio was 6.8.

On to GEFF, for which the enrichment ratio is not above 0.25.

As for YEGV, the enrichment ratio was not above 0.25.

Regarding LEAI, the enrichment ratio is 1.92.

As for QGTP, the enrichment ratio is not above 0.25.

As for VACC, the enrichment ratio is not above 0.25.

Consider IEYG, for which the enrichment ratio was not above 0.25.

MYSR: the enrichment ratio was not above 0.25.

Consider IHVK, for which the enrichment ratio is not above 0.25.

Take RKTL: the enrichment ratio is not above 0.25.

On to WRAF, for which the enrichment ratio came out at 1.01.

As to LMIQ, the enrichment ratio is not above 0.25.

Regarding DFKG, the enrichment ratio is not above 0.25.

Turning to PYWN, the enrichment ratio was not above 0.25.

Take SIIR: the enrichment ratio came to 0.517.

For IGIP, the enrichment ratio was not above 0.25.

As to KAPG, the enrichment ratio was not above 0.25.

As to VCYL, the enrichment ratio was not above 0.25.

As to FHML, the enrichment ratio was not above 0.25.

MHWK: the enrichment ratio is not above 0.25.

As to WDKF, the enrichment ratio was not above 0.25.
